According to PMC4336329 (PLoS ONE, 2015):
The whole screen tested about 310,000 compounds, of which about 2,200 (0.71%) showed an effect of 50% or more. The effect is printed as a negative number. The list shows a part of the results.

Target: human ether-à-go-go-related gene (hERG) potassium channel (human, UniProt Q12809)
Test: primary screen, population patch clamp on CHO cells stably expressing hERG

Sequence of human ether-à-go-go-related gene (hERG) potassium channel (Q12809 whole entry, looked up): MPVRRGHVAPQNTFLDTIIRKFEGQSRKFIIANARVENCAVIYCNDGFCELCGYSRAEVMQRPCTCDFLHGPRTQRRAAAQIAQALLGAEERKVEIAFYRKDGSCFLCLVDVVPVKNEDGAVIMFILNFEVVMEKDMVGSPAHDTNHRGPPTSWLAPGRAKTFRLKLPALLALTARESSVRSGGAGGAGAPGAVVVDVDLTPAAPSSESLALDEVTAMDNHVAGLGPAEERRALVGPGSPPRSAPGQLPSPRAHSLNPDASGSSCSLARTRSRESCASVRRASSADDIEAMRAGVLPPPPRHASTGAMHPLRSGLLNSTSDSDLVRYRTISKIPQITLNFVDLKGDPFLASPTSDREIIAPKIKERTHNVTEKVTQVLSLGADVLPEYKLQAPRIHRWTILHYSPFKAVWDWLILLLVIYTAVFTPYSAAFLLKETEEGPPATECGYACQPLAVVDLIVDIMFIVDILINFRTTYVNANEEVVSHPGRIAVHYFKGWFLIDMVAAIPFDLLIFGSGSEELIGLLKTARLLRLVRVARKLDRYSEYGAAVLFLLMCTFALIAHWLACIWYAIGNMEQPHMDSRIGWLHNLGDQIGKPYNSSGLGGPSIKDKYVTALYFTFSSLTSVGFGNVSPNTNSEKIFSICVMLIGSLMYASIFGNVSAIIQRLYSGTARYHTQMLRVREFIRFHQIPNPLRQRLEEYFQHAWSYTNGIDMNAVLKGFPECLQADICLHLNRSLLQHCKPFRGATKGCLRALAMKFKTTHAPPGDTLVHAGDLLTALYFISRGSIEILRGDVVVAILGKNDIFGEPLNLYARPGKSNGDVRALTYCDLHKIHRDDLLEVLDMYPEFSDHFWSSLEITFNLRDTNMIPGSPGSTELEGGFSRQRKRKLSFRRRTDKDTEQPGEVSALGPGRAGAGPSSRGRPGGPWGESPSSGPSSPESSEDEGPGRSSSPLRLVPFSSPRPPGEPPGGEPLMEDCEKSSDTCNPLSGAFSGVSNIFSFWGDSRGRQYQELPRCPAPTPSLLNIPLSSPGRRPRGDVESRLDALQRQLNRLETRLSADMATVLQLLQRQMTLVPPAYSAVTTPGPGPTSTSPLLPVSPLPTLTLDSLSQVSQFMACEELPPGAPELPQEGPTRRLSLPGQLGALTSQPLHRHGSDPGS

Compound	hERG current change (%, negative = inhibition) at 1uM [%]
C#CCSc1nnc(-c2ccc(OC)cc2)o1	-12.1
COc1ccc(OC)c(-c2nc(CN3CCCCC3c3cccnc3)c(C)o2)c1 (stereo not drawn)	8.01
CCCN(Cc1ccccc1)C(=S)Nc1ccc(OCC)cc1	6.03
Cc1ccccc1NC(=O)CCN1CCN(CCO)CC1	18.4
Cc1ccc(C(=O)N2CCC(C(=O)NC3CCCCCC3)CC2)cc1	13.9
COc1ccc(S(=O)(=O)N(CC(=O)NCc2cccnc2)c2ccc(F)cc2)cc1OC	9.21
CCN1CCN(S(=O)(=O)c2ccc(Cl)c(C(=O)N(C)Cc3ccc(F)cc3)c2)CC1	6.21
CCCOC(=O)c1ccc(NC(=O)C2C3CCC(C3)C2C(=O)O)cc1 (stereo not drawn)	17.5
CCOc1cc(N2CCOCC2)c(OCC)cc1NC(=O)Cc1cccc(OC)c1	9.13
CN1CC2(C(=O)c3ccccc3)CN(C)CC(C(=O)c3ccccc3)(C1)C2	-7.52
Cc1cc(OC(=O)N(C)C)nc(-c2ccc(C)c(Cl)c2)n1	5.38
CCCCNC(=O)CSc1nc2ccccc2n1S(=O)(=O)c1ccc(Br)cc1	7.05
O=c1c2ccccc2c2ccccc2c(=O)n1Cc1cccnc1	12.9
CN(CC(=O)Nc1cccc(F)c1)C(=O)c1ccccc1CCc1ccccc1	12.5
CC(=O)C1=C(O)C(=O)N(CCCn2ccnc2)C1c1ccc(Cl)cc1 (stereo not drawn)	7.14
CN1CCC(OC(=O)C2c3ccccc3Oc3ccccc32)CC1.Cl	0.3
N#Cc1ccccc1CSc1nnc(Cc2ccccc2)o1	11.3
c1ccc2[nH]c(SCCN3CCOCC3)nc2c1	4.94
Cc1ccc(C)n1-c1nn(S(=O)(=O)c2ccccc2)c2cccc(F)c12	11.5
COc1ccc(OC)c(NC(=O)CN(c2ccc(C)cc2)S(=O)(=O)c2c(C)n[nH]c2C)c1	12
O=C(COc1ccc(S(=O)(=O)N2CCOCC2)cc1)NCc1ccco1	10.6
COCCOc1ccc(C(F)(F)F)cc1Nc1nc2ccccc2o1	-3.18

Compound	hERG current change (%, negative = inhibition) at 1uM [%]
CCOC(=O)c1c(NC(=O)CSc2nnnn2C)sc(CC)c1C	10.3
COc1ccc(NC(=O)NC2CCCCCCC2)cc1OC	10.4
O=C(C1CCN(Cc2ccccc2)CC1)N1CCN(C/C=C/c2ccccc2)CC1.O=C(O)C(=O)O	-1.68
Cc1cc(C)n(-c2nncn2/N=C/c2ccccc2F)n1	9.34
CCC1Oc2ccccc2N(CC(=O)NCCc2ccc(OC)c(OC)c2)C1=O (stereo not drawn)	11.4
Cn1c(=O)cc(SCC(=O)NCC2CCCO2)c2ccccc21 (stereo not drawn)	11.8
CC1CCN(C(=S)NC(=O)C2CCCCC2)CC1	5.44
C/C(=N\Nc1ccccn1)c1ccc(C#N)cc1	-1.36
C#CCSc1nsc(SCC#C)c1C#N	13.1
CCN=C(N/N=C/c1ccc([N+](=O)[O-])cc1)SC.I	1.9
COc1ccc(-c2nc3c4ccccc4ccn3c2CN2CCCCC2)cc1	6.14
Cc1nn(-c2ccccc2)c2c1C(c1ccccc1)C(C#N)=C(N)O2 (stereo not drawn)	0.69
O=C(Oc1cccc(NC(=O)c2ccco2)c1)c1ccc(Br)c(S(=O)(=O)N2CCCCC2)c1	11.5
CCOC(=O)C(/C=C(\C#N)C(=O)OCC)=C(/N)N1CCN(c2ccccc2)CC1	20.5
CC(C)(C)c1ccc(Cn2nnc3c(=O)[nH]c(C4CCCN(C(=O)c5cccs5)C4)nc32)cc1 (stereo not drawn)	13.1
CCOC(=O)c1c(-c2ccc(OC)cc2)csc1NC(=O)CNCc1ccco1	8.14
OCCC1CN(Cc2ccc(Oc3ncccn3)cc2)CCN1CCc1ccccc1 (stereo not drawn)	0.0303
CC1Cc2ccccc2N1C(=O)CSc1nncn1C (stereo not drawn)	8.74
Cc1c(C(=O)N2CCC(C)CC2)sc2ncn(CC(=O)N3CCC(C)CC3)c(=O)c12	22.8
Cc1cc([N+](=O)[O-])c(Cl)cc1NC(=O)C(C)C	7.11
C=CCc1cc(Cl)ccc1OCCCNC(C)CC.O=C(O)C(=O)O (stereo not drawn)	5.09
CCCC(C(=O)NC1CCCC1)N(C(=O)Cn1nnc(-c2ccc(C)o2)n1)c1ccccc1OC (stereo not drawn)	5.94

Compound	hERG current change (%, negative = inhibition) at 1uM [%]
O=C(Nc1cccc(F)c1)c1cc(-c2ccco2)nc2ccccc12	6.35
COc1ccccc1N(CC(=O)NCC1CCCO1)C(=O)CCC(=O)Nc1nccs1 (stereo not drawn)	4.46
CN(C)N1C(N)=C(C#N)C(c2ccccc2)C2=C1CC(C)(C)CC2=O (stereo not drawn)	3.74
O=c1c2cc(N3CCOCC3)ccc2[nH]c(=S)n1Cc1ccc(Cl)cc1	6.29
O=C(Cc1cccc(NC(=O)C2CCN(C(=O)C3CCC3)CC2)c1)Nc1cccc(C(=O)N2CCCC2)c1	7.36
Cc1cc(C)cc(N2CC(C)(C)C2=O)c1	10.4
COc1ccc(C(OCC(O)CNCCc2ccc(S(N)(=O)=O)cc2)c2ccc(OC)cc2)cc1 (stereo not drawn)	-1.33
COc1cc(OC)c(NC(=O)c2sc3ncn(CC(=O)N4CCN(c5ccccn5)CC4)c(=O)c3c2C)cc1Cl	11.5
Brc1ccccc1-c1nnc(COc2ncnc3c2cnn3-c2ccccc2)o1	2.47
c1ccc(CN2CCN(c3cnc4ccccc4n3)CC2)cc1	6
Cc1nn(C)c(C)c1NC(=O)CSc1nc(Cc2ccccc2)nc2c1cnn2-c1ccccc1	12
COC(=O)C1=C(N)Oc2cc(C)n(CCCn3ccnc3)c(=O)c2C1c1cccc(Cl)c1 (stereo not drawn)	-27.8
Cc1cnc(NC(=O)CSc2nnc(COc3ccccc3)o2)s1	3.48
CCCCN(C)C(=O)C1CCC(CNS(=O)(=O)c2ccc3c(c2)CC(C)N3C(=O)C2CC2)CC1 (stereo not drawn)	-14
CCOCC(=O)Nc1c(C(=O)OCC)oc2ccccc12	-2.11
COc1ccc(C(C)=O)cc1COC(=O)c1ccc(S(=O)(=O)N(C)C)cc1	12.6
Cc1cccc(Nc2nc3c(s2)CCCC3)c1	8.23
COc1cc(C(C(=O)NC2CCCCC2)N(C(=O)c2snc(C(N)=O)c2N)c2ccc(C)cc2)ccc1O (stereo not drawn)	8.68
CCOC(=O)c1cc(-c2cccc([N+](=O)[O-])c2)nc2[nH]c(=O)[nH]c(=O)c12	5
O=C(O)c1ccc(CSc2nnc(-c3cccnc3)n2-c2ccc(Br)cc2)cc1	10.7
NS(=O)(=O)c1ccc(CCNC(=O)CCCn2c(SCC(=O)N3CCCC3)nc3ccsc3c2=O)cc1	6.18
Cc1cc(NC(=O)c2ccc(Cl)cc2)ccc1NC(=O)c1ccccc1Cl	9.38

Compound	hERG current change (%, negative = inhibition) at 1uM [%]
c1cncc(-c2ccnc3ncnn23)c1	0.683
CCN(CC)CCOC(=O)C1(c2ccccc2)CCCC1.Cl	6.96
COCCCN(C(=O)CCOc1ccc(C)cc1)c1c(N)n(Cc2ccccc2)c(=O)[nH]c1=O	4.84
CN1CCc2c(sc(NC(=O)c3ccc(S(=O)(=O)N4CCOCC4)cc3)c2C(N)=O)C1	9.55
COC(=O)c1c(C(C)=O)cnc2ccc(Br)cc12	2.11
COc1ccccc1-c1noc(-c2ccco2)n1	4.63
S=C1NCCOCCOCCOCCOCCNC(=S)NCCOCCOCCOCCOCCN1	-5.31
CCOc1ccc(/C=C/C(=O)N(CC)CC(=O)Nc2ccc3c(c2)OCCO3)cc1OCC	10.8
CCC1CCc2sc(C(=O)N3CCCN(C)CC3)cc2C1 (stereo not drawn)	4.44
C/C(CCc1ccccc1)=N\NC(=O)C(=O)Nc1cccc(Cl)c1	13.9
Cc1cc(C)cc(NC(=O)C2CCN(S(=O)(=O)c3ccc4[nH]c(=O)ccc4c3)CC2)c1	7.62
Cc1ccn2cc(CNS(=O)(=O)c3ccc4ccccc4c3)nc2c1	3.95
O=C(c1ccc(Cl)cc1)C1CCCN(Cc2cccc3cnccc23)C1 (stereo not drawn)	-5.56
CCNC(=S)N1CCN(CC(=O)Nc2ccc(OC)cc2)CC1	-2.52
O=c1c2ccccc2nc(SCc2nc3ccccc3s2)n1Cc1ccco1	17.6
CCN(C(=O)c1cc(Cl)ccc1Cl)C1CCS(=O)(=O)C1 (stereo not drawn)	4.46
CCN(C(=O)COC(=O)c1cc(C)oc1C)c1c(N)n(Cc2ccccc2)c(=O)[nH]c1=O	5.36
Cc1ccccc1CCNCc1ccc(Br)cc1	-2.08
CC(/C=N/n1cnnc1)=C\c1ccccc1	1.86
CCCC1(c2ccccc2)NC(=O)N(CC(=O)Nc2cc(OC)cc(OC)c2)C1=O (stereo not drawn)	10.6
CCc1nc(C)cn1S(=O)(=O)c1cc(Cl)c(OC)cc1Cl	4.64
